Some of the results follow.

This assay concerns PfAP2-HC AP2 domain (GST-tagged). Description: gcPBM binding intensity (ln(normalized median fluorescence intensity)); higher = stronger DNA binding. In outline: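 Binding of GST-tagged P. falciparum DNA-binding domains, expressed in E. coli and used at about 25 μg on average, was carried out for 1 h in 1× PBS containing 1% milk, 0.2 mg/ml BSA, 0.5% salmon testes DNA and 0.03% Triton X-100. The target was an Agilent 4 × 180k array of primer-extended double-stranded 36-bp intergenic genomic probes plus negative controls, read with Alexa488 anti-GST antibody at 488 nm. Binding intensity is the highest Masliner-normalised natural-log median intensity across replicate spots of either probe orientation.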
With “GGTAGAAAATCAGTTAAACACACACCGAAAAAAAAA [CACACA_site8934]”, the “gcPBM binding intensity (ln)” value came to 10.1. The figure for “ATTTGTATAATAAGTTGTACAATTCTTACAATATAA [XGTACX_site4164]” is 9.54; for TTTAAGCGTTCACTGCTGCACTTTTATGTTGTGACC it is 9.59; for “AAAAAAAAAAAAAGCACACACACATATGCGTATATA [CACACA_site953]” it is 10.3. For “TAAATATAACAGAATAATATGTGGATTAATAAATGA [CACACA_negctrl_site438]”, the “gcPBM binding intensity (ln)” value came out at 9.68. As to “ATATAATATGTTGAATGTACTTAAAAAAATGTATCT [XGTACX_site5385]”, the “gcPBM binding intensity (ln)” value amounted to 9.71. The figure for “TTAAGTTACAATTCTCGTACACATTAAAAGAAAATT [XGTACX_site699]” is 9.49; for “AAAAAAAAAAAAAAAACACACATGTATACTAGAATA [CACACA_site7108]” it is 9.75. Then “TATAAGAAATAAAACCTGATTATAAACCTGTAACCA [CACACA_negctrl_site1302]”, with 9.66.

Regarding “AAGGCAAACAGACACACACACATATATACCTATATA [CACACA_site7077]”, the “gcPBM binding intensity (ln)” value came to 10.4. Then “GTTATACACATTACATGTACAAAAGTTGCACTTCAT [XGTACX_site6023]”, with 9.86; and “GTTGCCATCATTTGGCGTACAGTCAAAACCAAATCT [XGTACX_site1398]”, with 9.27. Take “AAATTTTTTTTTTAATTTTTTATTTAAAAAAAATAT [TGCATGCA_negctrl_site174]”: the “gcPBM binding intensity (ln)” value worked out at 9.02.

Regarding “GTTATAAATAAATATACACACATATATAAAATACAT [CACACA_site7146]”, the “gcPBM binding intensity (ln)” value was found to be 9.97. Turning to “TATAACATAAAACACACACACATACATACACAAAAA [CACACA_site1804]”, the “gcPBM binding intensity (ln)” value amounted to 11. The figure for “CGCTTTATTTATATATGTACATATATATATATATAC [XGTACX_site5012]” is 9.85.

Take “AAGAGCAACCAAATAGAAAAAGGAAAATAAAAGGAA [CACACA_negctrl_site100]”: the “gcPBM binding intensity (ln)” value was found to be 9.66. Then “TCCTATTTTATATAATGTACATAAATATATTACATA [XGTACX_site2720]”, with 9.65. Then “TTTGTTCAATTTACATGTACAGATATAATCTAACAT [XGTACX_site370]”, with 9.65; and “TCTATTAAAACAAATTGTACTTATTGATAAAGAATA [XGTACX_site3645]”, with 9.4; and “ATTTTTATTTTATATACACACAATAATAATATAATA [CACACA_site4015]”, with 9.54. Consider “AAAATATATAAACGCACATATATTTATGTATATATA [CACACA_negctrl_site163]”, for which the “gcPBM binding intensity (ln)” value was 9.83. The figure for “TAAAAAAAAACATGATGTACATAAAATTTTTTACTT [XGTACX_site7056]” is 9.63; for “AAAAGGGAAAAAATTAAAATTATATATATATATATG [CACACA_negctrl_site137]” it is 9.41; for “TTATTAGAGATGTTAAGATATAGGGATAATTTCGAT [XGTACX_negctrl_site395]” it is 9.48.

In the case of “TACATATATTTAAGGAGTACAAAAAATAATGATAAA [XGTACX_site3539]”, the “gcPBM binding intensity (ln)” value is 9.64.

In the case of “ATATGTTTTAAGTGTACACATATAATGTATTTTGTT [CACACA_site4929]”, the “gcPBM binding intensity (ln)” value was 9.82. The figure for “TATTATGCTATTTAATGTACGGAATTTATATATATA [XGTACX_site564]” is 9.5; for “AACCTATCTATAGGAACAATATATATATATATAATT [CACACA_negctrl_site1707]” it is 9.62; for “TTGCTCATTGAAATTATACACACCAAATATATAAAT [CACACA_site2482]” it is 9.63.

Take “GACATAGTATTAAGTTGTACATATATAAAAATAAAT [XGTACX_site1583]”: the “gcPBM binding intensity (ln)” value was 9.71. For the sequence “TTGCTTTTCATTTATTGTACATACCCAGTAGGATAA [XGTACX_site3939]”, the “gcPBM binding intensity (ln)” value amounted to 9.58. As to “TTACGAATGAATATATGTACATATATATATATATAT [XGTACX_site3790]”, the “gcPBM binding intensity (ln)” value was determined as 10.1. The figure for “AATGTACACGCACCCACACACAAACAAATATAAATA [CACACA_site7319]” is 11.6; for “ATGTTTTCAAAAATAAAACATATAAATAAATAAATA [TGCATGCA_negctrl_site226]” it is 9.51; for “CAACAACAAATGAGAAGTACATAAATATTAACAATA [XGTACX_site4625]” it is 9.96. The figure for “TTATAATACCTACAAAGTACAAACTTAAATATGAAC [XGTACX_site5684]” is 9.59; for “AAGCTTAAAAATGGGGGTACGTCATAGGGATTCAAC [XGTACX_site8080]” it is 9.79; for “AATATATAAACATATACACACAAAAACATATATATA [CACACA_site4855]” it is 10.4.

As to “TTTGACACAATATTTTGTACGAAACTATTAATTCAA [XGTACX_site4853]”, the “gcPBM binding intensity (ln)” value was determined as 9.62. With “AAAAAAAAGAATTAGGCACACAATTTTAATATAGGA [CACACA_site1522]”, the “gcPBM binding intensity (ln)” value came to 9.75. As for “ACTACGAATGGTAGAGTGCAGTCTGGAGAAGAGTAC [GTGCAC_site9685]”, the “gcPBM binding intensity (ln)” value is 9.94. Then “GCATACATCAAGCACACACACACACGCACACGCACA [CACACA_site6311]”, with 11.3; and “GTGAAGTTCAAAATATGTACTTATGTATGTATTTTT [XGTACX_site165]”, with 9.67; and “TTATGGATGGACAATAATAAAATTTTTACTTTTATT [CACACA_negctrl_site908]”, with 9.48. The figure for “TTATGTTTCATAAAAAATTAATCAAACATATATAAG [CACACA_negctrl_site666]” is 9.32. The figure for “TATACATAGAAACACACACACATAAATAAATATATA [CACACA_site1342]” is 10.4; for “CCTTAAATAATATATTCACACAATATAACAAAAATT [CACACA_site4892]” it is 9.56. Consider “TGGTATATAAAACACACACACATATGTATATATATA [CACACA_site926]”, for which the “gcPBM binding intensity (ln)” value came out at 10.3. As to “AAAAAAAAAATTATATATATATCCCTTATTTTTTCT [TGCATGCA_negctrl_site151]”, the “gcPBM binding intensity (ln)” value stood at 9.68. Consider “TCATATATATTGAAATGTACTTATTTTTTCCTCATA [XGTACX_site6526]”, for which the “gcPBM binding intensity (ln)” value was found to be 9.48. For “CATACACAGAAACACACACACATATATACATATATA [CACACA_site1094]”, the “gcPBM binding intensity (ln)” value was 10.4. “AACAAATATGATTTTTTATATATTTTTAAATTTGGT [GTGCAC_negctrl_site189]”: the “gcPBM binding intensity (ln)” value came to 9.49.

As for “AGTTTAATTTTGTATACACACATTTGAATTATTAAT [CACACA_site7625]”, the “gcPBM binding intensity (ln)” value is 9.93. Then “TATATCTATTTCAAATGTACTTATATGATTCTTATA [XGTACX_site6277]”, with 9.59; and “AGCTACAAAAATTAATATATATATGTATAGTTATAC [TGCATGCA_negctrl_site531]”, with 9.4. Consider “AAATTACTGTAAAAAAGTACAGAAGTTCTTATTTTT [XGTACX_site7416]”, for which the “gcPBM binding intensity (ln)” value was 9.44. Take “GTTCATATAATAAAATGTACATAATATATTATATAT [XGTACX_site7623]”: the “gcPBM binding intensity (ln)” value was found to be 9.59. Then “TATATGTAGATTAAACGTACTTACAACGGAATTATC [XGTACX_site3036]”, with 9.64; and “GTATTATATTTTAATACACACCCAAATATTAAAAAG [CACACA_site8968]”, with 9.77.

Consider “AAATGTTCAGAAACTATTATAAAAATGGAATAATAT [CACACA_negctrl_site1544]”, for which the “gcPBM binding intensity (ln)” value is 9.53. As for “TGCCATCATATCATAGGTACACAAACATATAAAGAA [XGTACX_site4137]”, the “gcPBM binding intensity (ln)” value is 9.63. The figure for “CTTAATATGGATATTGCATGTAGAACATGAACAATA [TGCATGCA_site760]” is 9.61; for “TAAATATTATATTTATGTACATAAGTTTTTTTTAAT [XGTACX_site3559]” it is 9.56.

In the case of “TTATGCTCAAAGAAAAGTACATAAATAAAAGTATAT [XGTACX_site7365]”, the “gcPBM binding intensity (ln)” value was 9.54.

“TTAACAAATAAATGCACACATATATATAAATAATAT [CACACA_site28]”: the “gcPBM binding intensity (ln)” value was found to be 9.75. For the sequence “TAAACACCCATACATACACACATACATACACCCATA [CACACA_site5125]”, the “gcPBM binding intensity (ln)” value worked out at 10.

In the case of “TTCTTCAATATATTCTTACACACTTAAAAAAAAAAA [CACACA_site228]”, the “gcPBM binding intensity (ln)” value is 9.34. Then “ATATATATATATATATGTACATAATGCATATAATAT [XGTACX_site6142]”, with 9.79; and “TTAATACTTTTTTCTGTACACACTTGATTTACTATA [CACACA_site2799]”, with 9.98; and “GAAGGAAAAGATACGATAAAATAAGATATTAATTTA [GTGCAC_negctrl_site419]”, with 9.53. The figure for GTATATAAATAAATAGTGCATTATTAAAAATAATGT is 9.83. The figure for “TTTTTTTTTTTTTATTGTACATACTTTTAAATATAT [XGTACX_site4303]” is 9.6.

As for “ATTGAGGCTGGTTATATAATAATTTTATTATTTTAG [GTGCAC_negctrl_site409]”, the “gcPBM binding intensity (ln)” value is 9.71. Regarding “ATATATTTATATTTTTGTACCCAAAATTGTTTGATG [XGTACX_site3581]”, the “gcPBM binding intensity (ln)” value was determined as 9.56.

In the case of “TAAAAGTTGAAGCACACACACAAAAGAAATACAATA [CACACA_site6649]”, the “gcPBM binding intensity (ln)” value was 11.3.

Regarding “TTAAAGCTTGCATATACACACATACATAAATTCATA [CACACA_site7208]”, the “gcPBM binding intensity (ln)” value amounted to 9.73. The figure for “TATCTCCACAAAAGATGTACTCATATTAATTTATAA [XGTACX_site3535]” is 9.1. Then “GTATACAACATATGAACACACAAAATATTTTTTTTT [CACACA_site2928]”, with 9.83; and “TATGAAAAGTAAAGTACACACAGGAAAAAAAAAAAA [CACACA_site1749]”, with 9.91; and “TTTGTTATATTTAATACACACATATTATAAACACAT [CACACA_site7703]”, with 9.88. The figure for “ATAAATAAAGGACACACACACACACTAATAAAAAAA [CACACA_site8840]” is 11.4; for “TATATAATATATTTATGTACTCACAATGGGGTCTAC [XGTACX_site2691]” it is 9.6. In the case of “GGTATACTCAAGTATACACACATATATATATATATA [CACACA_site5746]”, the “gcPBM binding intensity (ln)” value stood at 9.74.

Consider “AAAATATATTAAGGCACACACATACAGATATATATA [CACACA_site5951]”, for which the “gcPBM binding intensity (ln)” value was 11.1. Turning to “TTTTTTCTTTTTTTTTTTTTTTTCTTTTTTTTTTTT [GTGCAC_negctrl_site196]”, the “gcPBM binding intensity (ln)” value is 9.32. Then “TACATACACAAATACACACACAAATACATACCCAAA [CACACA_site4550]”, with 10.3; and “TACGTGAAATTATATACACACATAAATATGGGTGTA [CACACA_site5687]”, with 9.67.

The values above are taken from the supplement of paper PMC11417369.
